# Data reported in PMC6919601, “Identification of Plasmodium dipeptidyl aminopeptidase allosteric inhibitors by high throughput screening” (PLoS ONE, 2019).
# Out of some 110,000 compounds screened, about 230 (0.21%) showed an effect of 50% or more. The list shows a part of the results.
# Target: DPAP1 (Plasmodium falciparum, UniProt Q8IIJ9)
# Assay: primary screen, percent inhibition; read by cleavage of a fluorogenic dipeptide substrate; higher = more effect of the substance
# Design: species or system P. falciparum D10 trophozoite lysates; single well
# 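Further: 30 min substrate incubation versus DMSO and 10 µM JCP410 controls.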
# Chain of DPAP1 (Q8IIJ9 whole entry, looked up): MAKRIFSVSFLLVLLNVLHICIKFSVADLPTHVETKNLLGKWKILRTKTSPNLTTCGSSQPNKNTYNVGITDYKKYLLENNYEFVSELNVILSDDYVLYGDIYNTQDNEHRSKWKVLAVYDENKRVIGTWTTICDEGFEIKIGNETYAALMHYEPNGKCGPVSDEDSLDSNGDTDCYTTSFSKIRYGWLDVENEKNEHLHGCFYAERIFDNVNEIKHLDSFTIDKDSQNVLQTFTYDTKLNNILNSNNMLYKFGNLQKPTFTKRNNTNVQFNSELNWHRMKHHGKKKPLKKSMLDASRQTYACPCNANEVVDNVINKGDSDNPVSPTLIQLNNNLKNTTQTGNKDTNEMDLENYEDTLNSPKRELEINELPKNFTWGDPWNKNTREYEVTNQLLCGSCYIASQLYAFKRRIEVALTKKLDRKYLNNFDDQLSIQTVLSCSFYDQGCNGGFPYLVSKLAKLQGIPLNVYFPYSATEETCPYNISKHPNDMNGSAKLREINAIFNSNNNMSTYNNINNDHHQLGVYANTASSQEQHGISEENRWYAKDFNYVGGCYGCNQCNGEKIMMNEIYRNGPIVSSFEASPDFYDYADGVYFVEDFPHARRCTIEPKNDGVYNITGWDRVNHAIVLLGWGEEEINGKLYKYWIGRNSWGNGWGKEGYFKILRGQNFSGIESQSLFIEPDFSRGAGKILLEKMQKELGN
row,Compound,% Inhibition @ 10 uM [%]
1,Cc1ccc(NC(=O)c2sc3nc(-c4ccncc4)ccc3c2N)c(Br)c1,-9.45
2,C=CCNC(=O)c1cc(-c2ccccc2O)on1,-1.84
3,CN1CCN(C(=O)c2ccc(CS(=O)(=O)c3c(Cl)cccc3Cl)o2)CC1,-6.89
4,COc1cc(CNC2C3CC4CC(C3)CC2C4)ccc1OCc1cccs1 (centres unmarked),4.85
5,CCC1CCCCN1C/C=C/c1ccccc1[N+](=O)[O-] (centres unmarked),-3.57
6,COc1ccccc1NC(=O)C1=C(C)Nc2ncnn2C1c1ccccc1OC (centres unmarked),-2.86
7,c1ccc(OCCn2c(CN3CCCCC3)nc3ccccc32)cc1,-1.31
8,Nc1c(C(=O)Nc2ccccc2)cc(O)c2c1C(=O)c1ccccc1C2=O,-1.07
9,N=C1/C(=C/c2ccc(SCc3ccco3)o2)C(=O)N=C2SC=CN12,17.5
10,CCC(C(=O)NCc1ccccc1Br)n1sc2ccccc2c1=O (centres unmarked),0.39
11,CN(C)CCOC1c2ccccc2C=Cc2ccccc21,-3.16
12,CC/N=c1\c(NS(=O)(=O)c2cccs2)c(O)oc2ccccc12,-2.78
13,CC(C)Cn1cc(NC(=O)NCCc2ccsc2)c2ccccc2c1=O,-1.79
14,COc1cccc(C2/C(=C(/O)c3ccccc3)C(C)=Nc3nc4ccccc4n32)c1 (centres unmarked),-0.703
15,Cc1cccc(NC(=O)c2cc(-c3ccc(C)o3)nc3ccccc23)n1,5.24
16,CCN1CCN(Cc2cc(OC)cc(OC)c2)CC1,7.2
17,O=C(O)c1ccc(CNC(=O)c2cccnc2C(=O)O)cc1,-1.52
18,COc1ccc(S(=O)(=O)NCc2ccccn2)c(Cl)c1Cl,1.27
19,COc1ccc(C2CC(c3c(O)cc(C)oc3=O)=NCCS2)c(OC)c1 (centres unmarked),-0.128
20,CC1(C)CC(OC(=O)c2ccccc2)CC(C)(C)N1OC(=O)c1ccccc1,2.18
21,CC(C)C(=O)NCCc1nc2ccccc2n1C(C)c1ccccc1 (centres unmarked),-1.74
22,COc1ccc(C2C3=C(O)CCCC3=NC(C)=C2C(=O)Nc2nc3ccccc3s2)c(OC)c1 (centres unmarked),-2.87
23,COc1cc(NCc2cc[n+](C)cc2)cc(OC)c1OC,-4.4
24,O=C(CCn1c(=O)c2cccn2c2cccnc21)Nc1ccc(Br)cn1,4.39
25,Cc1ccccc1-c1nc(CN2CCC(C(=O)NCCN3CCCC3)CC2)c(C)o1,2.37

row,Compound,% Inhibition @ 10 uM [%]
1,COc1ccc(CCNC(=O)c2ccc(CS(=O)(=O)Cc3ccc(C)cc3)o2)cc1OC,0.514
2,Cc1ccc(NC(=O)COc2ccc(S(=O)(=O)NC(C)(C)C)cc2)cc1Cl,-3.37
3,Clc1cccc(N2CCN(C3CCN(CCc4ccccc4)CC3)CC2)c1,-3.82
4,CCC(Oc1ccccc1)C(=O)Nc1c(C)cccc1C (centres unmarked),-0.132
5,O=C(COc1ccc(Br)cc1)NCCC1=CCCCC1,0.245
6,Cc1nc2c(oc3nc(-c4ccco4)c4c(c32)CC(C)(C)OC4)c(-c2ccccc2)c1C(=O)O,-1.06
7,Cc1c2c(nc3c(C)cccc13)OC(C)C2 (centres unmarked),-2.24
8,O=C(Nc1noc2ccccc12)C(F)(F)F,-2.85
9,Nc1nc2ccccc2n1Cc1ccc(Cl)cc1,-2.2
10,Oc1ccccc1C(=S)N1CCOCC1,4.68
11,CSc1ncc2c(n1)SC(C(=O)N1CCN(c3cccc(Cl)c3)CC1)C2=O (centres unmarked),-3.58
12,O=C(c1cc2ccccc2o1)c1nc2c(n1O)CCCC2,-7.33
13,CCCc1nnc(NC(=O)CCN2C(=O)C3C4C=CC(C4)C3C2=O)s1 (centres unmarked),-0.551
14,CC(C)CCN1C(=O)c2ccc(C(=O)Nc3cnc(O)nc3O)cc2C1=O,4.85
15,COc1ccc(/C=C2/C(=N)N3OC(C)=CC3=NC2=O)cc1Cl,-1.43
16,C/C(Cl)=C/Cn1c(SCc2ccccc2)nc2c1c(=O)[nH]c(=O)n2C,2.46
17,COc1ccc2oc(=O)c(C(=O)NCc3cccnc3)cc2c1,-1.92
18,CN(C)CCNc1sc(S(C)(=O)=O)nc1S(=O)(=O)c1ccc(Cl)cc1,-0.522
19,O=C1c2ccccc2S(=O)(=O)N1Cc1ccc(Cl)cc1Cl,1.97
20,CCN1CCC(NCc2ccc(Cl)cc2Cl)CC1,-3.74
21,CC(CNC(=O)c1ccc2nc(N3CCCCC3)sc2c1)c1ccccc1 (centres unmarked),2.65
22,CCOc1cc(/C=C2\C(=O)ON=C2c2ccc(Cl)cc2)ccc1OC,-1.17
23,CC(NC(=O)C(C)N1C(=O)C2C3C=CC(C3)C2C1=O)c1ccccc1 (centres unmarked),-3.33
24,Nc1cc(-c2nc3ccccc3s2)ccc1Br,-0.294
25,CC/N=C1/SC(CC(=O)Nc2ccccc2Cl)C(=O)N1C1CCCCC1 (centres unmarked),-1.98
